Assay results from PubChem BioAssay AID504832 (National Center for Advancing Translational Sciences (NCATS), 2011).
About 18,000 (5.8%) of roughly 310,000 compounds were called active. The shares of active, inactive and inconclusive entries below differ from those in the screen. The call rests on the fitted dose curve; in most records, active means well fitted inhibition curve with a large enough effect; inconclusive means small, poorly fitted or top-dose-only effect, or another doubt; inactive means no such curve, though single readings can be large or run the other way. No potency is given beside an inconclusive call; the fits are too rough.

Test: Primary qHTS for delayed death inhibitors of the malarial parasite plastid, 48 hour incubation
Settings: P. falciparum luciferase growth in erythrocytes; series mostly up to 28.7 µM
Summary of the method: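 Erythrocytes infected with P. falciparum carrying an integrated firefly luciferase reporter (2% hematocrit, 0.1% parasitemia final) were exposed to compounds in RPMI 1640 with 0.5% Albumax at 37 C, 5% CO2. Growth inhibition was scored as reduced luminescence.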
Potency means the concentration at half of the fitted maximal effect; tags describe the fitted curve by direction and shape.

Row | Structure (SMILES) | Potency
1 | CC(=O)Nc1ccc(Nc2nc(C)c([N+](=O)[O-])c(Nc3ccc(NC(C)=O)cc3)n2)cc1 | inactive
2 | CCOc1ccc(-n2c(SCc3ccc(C#N)cc3)nnc2-c2cccnc2)cc1 | inconclusive [inhibitor, full curve, poor fit]
3 | CN(C)S(=O)(=O)Oc1cccc(C(=O)Nc2ccccc2Cl)c1 | inactive
4 | O=[N+]([O-])c1cccc(/C=C/c2ccncc2)c1 | inactive
5 | CCN(CC)S(=O)(=O)c1ccc(NC(=O)c2ccc(N(C)S(C)(=O)=O)cc2)cc1 | active: 16.5 µM
6 | Cc1cccc(C)c1OCc1cc(C(=O)N2CCCCCCC2)no1 | inconclusive [inhibitor, partial curve, poor fit]
7 | CC(C)(C)c1ccc(C(=O)Nc2ccccc2NC(=O)c2ccco2)cc1 | inconclusive [inhibitor, single point]
8 | CCOC(=O)c1[nH]c(=O)[nH]c1CSc1ccccn1 | inactive
9 | Cc1ccc2nc(Nc3nc(CSc4nnc(C)s4)cc(=O)[nH]3)nc(C)c2c1 | inconclusive [inhibitor, partial curve]
10 | Cc1ccc(C(=O)NCC2CCCN2S(=O)(=O)c2cccs2)cc1C (configuration not stated) | inconclusive [inhibitor, single point]
11 | CCOc1ccccc1N(CC(=O)N/N=C(\C)c1cccc(Br)c1)S(C)(=O)=O | inconclusive [inhibitor, partial curve, poor fit]
12 | CCOc1ccc(C2=NNC(c3cccnc3)=Nc3ccc(OC)cc32)cc1 | inconclusive [inhibitor, single point]
13 | CN1CCN(C(=O)C2=C[C@@H](c3ccc(C(F)(F)F)cc3)C[C@@H](OCc3ccc(CO)cc3)O2)CC1 | inconclusive [inhibitor, single point]
14 | COC(=O)c1cccc(C23CC4(C2)[C@H](CN(Cc2ccc(C(F)(F)F)cc2)[C@@H]4c2ccccc2)C3c2ccccc2)c1 (some centres not stated) | inconclusive [inhibitor, single point]
15 | CC(NCC#Cc1ccccc1)C(O)c1ccccc1 (configuration not stated) | inconclusive [inhibitor, full curve, poor fit]
16 | O=C(Nc1ccc2c(c1)OCCO2)c1ccc(Br)c(S(=O)(=O)N2CCOCC2)c1 | active: 2.33 µM
17 | O=C(NNC(=O)c1cc(OCC(F)(F)F)ccc1OCC(F)(F)F)c1cccc(C(F)(F)F)c1 | active: 14.7 µM
18 | COc1ccc(O)c(/C=C(\C#N)C(=O)Nc2ccccn2)c1 | inactive
19 | Cc1cc(C)nc(SCc2nnc(SCC(=O)Nc3ccc(C)c(C)c3)o2)n1 | inactive
20 | CCOC(=O)[C@@H]1[C@H]2COc3ccccc3[C@H]2N2C(=O)N(c3ccc(OC)cc3)C(=O)[C@]12C | inactive
21 | Cc1ccccc1-c1cccc(CN2CCN(C)C(CCO)C2)c1 (configuration not stated) | inconclusive [inhibitor, single point]
22 | CC(c1ccccc1F)n1cc(C(=O)Nc2ccc3nc[nH]c3c2)nn1 (configuration not stated) | inconclusive [inhibitor, partial curve, poor fit]
23 | CC(=O)c1cc(C(C)=O)c(C)nc1C | inactive

Row | Structure (SMILES) | Potency
24 | COc1ccc(-c2cn3cccnc3n2)cc1NC(=O)C(C)Oc1ccccc1 (configuration not stated) | active: 13.1 µM
25 | COc1cccc2c1OCC([C@@H]1C[C@H]3CN(Cc4cccc(Cl)c4)C(=O)[C@]34CCCN14)=C2 | inconclusive [inhibitor, full curve]
26 | CC(C)CC(=O)NC(c1ccccc1)c1c(O)ccc2ccccc12 (configuration not stated) | inconclusive [inhibitor, full curve, poor fit]
27 | COC(=O)C1=C(c2ccc(Cl)c(C(F)(F)F)c2)C[C@@H]2CC[C@H]1N2C(=O)N1CCCC1 | active: 11.7 µM
28 | COc1cccc(C2=CC(=O)C[C@H](c3ccc(Cl)cc3)C2)c1OC | inconclusive [inhibitor, single point]
29 | COC(=O)CCN(C(=O)c1ccc(Cl)c([N+](=O)[O-])c1)c1ccccn1 | inconclusive [inhibitor, full curve, poor fit]
30 | CCOc1cccc(C(=O)NC(=S)Nc2ccc(N3CCCC3)cc2)c1 | inconclusive [inhibitor, single point]
31 | Cc1ccc(C)c(Cn2c(CO)nc3ccccc32)c1 | inconclusive [inhibitor, partial curve]
32 | COc1ccc(CCNC(=O)Cn2ccc3cc(S(=O)(=O)N4CCCC4)ccc32)cc1OC | inconclusive [inhibitor, partial curve, poor fit]
33 | c1csc(-c2csc3nc(CN4CCOCC4)nc(NCc4ccc5c(c4)OCO5)c23)c1 | inconclusive [inhibitor, single point]
34 | CC(=O)N1N=C(c2ccco2)CC1c1ccc(C)cc1 (configuration not stated) | inactive
35 | O=C(O)c1ccccc1N/N=C/C1=C(N2CCOCC2)C(=C\c2ccccc2)/CC1 | active: 10.4 µM
36 | CCn1c(SCc2ccc(F)cc2)nnc1-c1nn(-c2ccccc2)ccc1=O | inconclusive [inhibitor, partial curve]
37 | O=C(c1cccc(C(F)(F)F)c1)C1CCCN(Cc2ccc(OCCO)cc2)C1 (configuration not stated) | inconclusive [inhibitor, partial curve]
38 | CCCCC(NC(C)=O)c1nc2ccccc2[nH]1 (configuration not stated) | inactive
39 | Cc1c(O)cc2n(c1=O)-c1ccc(Cl)cc1C2(C)C | inconclusive [inhibitor, single point]
40 | COc1cc(C(=O)Cc2nc3ccccc3n2C)cc(OC)c1OC | inconclusive [inhibitor, single point]
41 | CCn1cc2nc(SCC(=O)Nc3ccccc3F)n(Cc3ccccc3)c(=O)c2n1 | inconclusive [inhibitor, partial curve, poor fit]
42 | COCCn1c(SCC(=O)NCc2ccc(F)cc2)nc2ccccc21 | inconclusive [inhibitor, partial curve, poor fit]
43 | COc1ccc(C2NC(=S)NC3=C2CCc2ccccc23)cc1OC (configuration not stated) | inconclusive [inhibitor, single point]
44 | COc1cccc(CNC(=O)CCC2CCCN(C3CCOCC3)C2)c1 (configuration not stated) | inactive
45 | CCN(CC)C(=O)COc1ccc(/C(C)=N/NC(=O)c2ccccc2-n2cccc2)cc1 | inconclusive [inhibitor, single point]
46 | COc1ccc(N2CCN(C(C)C(=O)N3CCc4ccccc43)CC2)cc1 (configuration not stated) | inconclusive [inhibitor, full curve, poor fit]

Row | Structure (SMILES) | Potency
47 | COc1ccc2occ(C(=O)c3coc4ccc(O)c(CN(C)C)c34)c2c1 | active: 8.28 µM
48 | N/C(=N\OC(=O)c1cc(-c2ccccc2)nc2ccccc12)c1ccc(Cl)cc1 | inactive
49 | COc1ccc(CCNC(=O)CN(c2ccc(C)cc2)S(=O)(=O)c2c(C)noc2C)cc1OC | inconclusive [inhibitor, partial curve]
50 | CCOC(=O)N1CCN(C(=O)c2cc(C)c3c(C)nn(-c4ccccc4)c3n2)CC1 | inconclusive [inhibitor, full curve, poor fit]
51 | O=S(=O)(c1cccc2nonc12)N1CCN(c2ccccc2F)CC1 | inactive
52 | CCCCCn1c(=O)[nH]c2cc(C(=O)NCCN3CCCCC3C)ccc2c1=O (configuration not stated) | active: 11.7 µM
53 | OCCC1CN(Cc2cnc(-c3ccccc3)s2)CCN1CCc1ccccc1 (configuration not stated) | inconclusive [inhibitor, partial curve]
54 | COc1ccc(NC2=CC(=O)CC(c3ccccc3)C2)c(OC)c1 (configuration not stated) | inconclusive [inhibitor, single point]
55 | Cn1ccc2ccc(C3=CC(=O)C[C@H](c4ccc(F)cc4)C3)cc21 | inconclusive [inhibitor, single point]
56 | Cc1c(Cl)ccc(S(=O)(=O)NCCN2CCOCC2)c1Cl | active: 0.131 µM
57 | COc1c2c(cc3ccc(=O)oc13)CCO2 | inconclusive [inhibitor, full curve, poor fit]
58 | CCOC(=O)c1nnn(-c2nc(N3CCCC3)nc(N3CCCC3)n2)c1-c1ccccc1 | inconclusive [inhibitor, single point]
59 | CN(C)C(CNC(=O)c1ccc(S(=O)(=O)Nc2ccccc2)cc1)c1ccco1 (configuration not stated) | inconclusive [inhibitor, single point]
60 | O=C(Cc1ccc2c(c1)OCCO2)Nc1cc(C(F)(F)F)ccc1N1CCOCC1 | active: 14.7 µM
61 | COc1ccccc1NC(=O)CCC(=O)N/N=C(/C)c1ccc(C)cc1 | inactive
62 | O=C(Nc1ncccn1)c1cc(-c2cccc(Br)c2)nc2ccccc12 | inconclusive [inhibitor, partial curve, poor fit]
63 | COc1ccc(S(=O)(=O)N2CCCC(C(=O)Nc3ccc4c(c3)OCCO4)C2)cc1 (configuration not stated) | inconclusive [inhibitor, single point]
64 | COC(=O)C1=C(COc2ccc(F)cc2)NC(=O)NC1c1ccc(C)cc1C (configuration not stated) | inconclusive [inhibitor, full curve, poor fit]
65 | COCCCn1c(SCC(=O)Nc2ccc(NC(C)=O)cc2)nc2sc3c(c2c1=O)CCC3 | inconclusive [inhibitor, partial curve]
66 | Cc1ccc(/C=C/C(=O)O)cc1S(=O)(=O)Nc1ccc(C(=O)O)cc1 | inactive
67 | CN(C(=O)c1ccc2c(=O)n3c(nc2c1)CCCCC3)c1ccccc1 | inactive
